In the supplement of paper PMC5895741:

B1: MS2 coat protein; the commonest letter at each place (parent)
chain: MASNFTQFVLVDNGGTGDVTVAPSNFANGVAEWISSNSRSQAYKVTCSVRQSSAQNRKYTIKVEVPKVATQTVGGVELPVAAWRSYLNMELTIPIFATNSDCELIVKAMQGLLKDGNPIPSAIAANSGIY

Variants of: B1
Experiment: apparent fitness score (VLP assembly selection enrichment vs plasmid library) (log10 ratio); higher = better expression / assembly into well-formed VLPs
Description: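 SyMAPS: NNK codon saturation mutagenesis of every codon of the MS2 bacteriophage coat protein (EMPIRIC cloning), expressed overnight in E. coli DH10B at 37 °C. Assembled VLPs were selected by ammonium sulfate precipitation plus FPLC size-exclusion chromatography, and the encapsidated RNA was sequenced. Apparent fitness score = log10 of the mean over 3 biological replicates of (percent abundance in the VLP library / percent abundance in the plasmid library). Variants absent after selection were set to 0.0001, i.e. -4.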
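Further: counts from Illumina MiSeq reads, cDNA of packaged RNA versus plasmid DNA taken before selection, each replicate independent from library construction onward, expression induced with 0.1% arabinose.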

Apparent fitness score (log10): each site, then its substitutions
N25: C < -4 | D 0.782 | E -0.963 | F < -4 | G 0.0795 | H < -4 | I < -4 | K -1.39 | L -1.31 | M -0.309 | P -1.73 | Q < -4 | R < -4 | S < -4 | T -1.49 | V < -4 | W -1.14 | Y < -4
F26: A -1.39 | C 0.39 | D < -4 | E < -4 | G -0.786 | H 0.465 | I -0.845 | K 0.355 | L 0.958 | M -0.00983 | N 0.376 | P -0.625 | Q 0.464 | R 0.518 | S 0.852 | T -0.963 | V -0.556 | W < -4 | Y 0.746
A27: C 0.536 | D < -4 | F -0.163 | G 0.699 | H < -4 | I < -4 | L 0.168 | N < -4 | P 0.274 | R < -4 | S 0.431 | T 0.593 | V 0.45 | Y -0.786
N28: A < -4 | C 0.382 | D 0.546 | E -0.442 | F -0.544 | G 0.719 | H 0.301 | I < -4 | K -0.721 | L < -4 | P < -4 | Q < -4 | R < -4 | S -1.5 | T < -4 | V < -4 | W < -4 | Y 0.325
G29: A -0.88 | C 0.234 | E 0.234 | F < -4 | H < -4 | I < -4 | K < -4 | L < -4 | M < -4 | N -0.721 | P < -4 | R 0.194 | S -1.09 | T < -4 | V 0.232 | W 0.397 | Y < -4
V30: A < -4 | C < -4 | D < -4 | E -0.119 | F < -4 | G < -4 | H < -4 | I -0.263 | K -1.67 | L < -4 | M < -4 | P -0.885 | Q < -4 | R -1.37 | S < -4 | T -0.542 | W < -4 | Y < -4
A31: C < -4 | D 0.131 | E < -4 | F -1.43 | G -1.25 | H < -4 | I < -4 | K < -4 | L < -4 | M < -4 | N < -4 | P -0.329 | Q < -4 | R < -4 | S 0.109 | T 0.22 | V -0.0848 | W 0.22 | Y < -4
E32: A < -4 | C -0.982 | D -0.569 | F -0.942 | G -0.648 | H < -4 | I < -4 | K < -4 | L -1.45 | M < -4 | N < -4 | P < -4 | Q < -4 | R < -4 | S -1.57 | T -1.28 | V -1.09 | W -0.579 | Y < -4
W33: A < -4 | C -0.0676 | D < -4 | E < -4 | F -0.913 | G -0.343 | H < -4 | I < -4 | K -1.54 | L -0.201 | M < -4 | N < -4 | P -0.584 | Q < -4 | R -0.307 | S -0.709 | T < -4 | V < -4 | Y -0.243
I34: A 0.725 | C 0.786 | D < -4 | E -1.19 | F 0.384 | G -0.891 | H 0.553 | K -0.574 | L -0.416 | M 0.0291 | N -0.825 | P < -4 | Q -0.368 | R -1.21 | S 0.631 | T 0.251 | V 0.36 | W < -4 | Y -0.122
S35: A -0.545 | C -0.845 | E < -4 | F < -4 | G -1.25 | I < -4 | K -0.0774 | L -1.31 | M < -4 | P < -4 | Q < -4 | R < -4 | T < -4 | V < -4 | W < -4 | Y < -4
S36: A 1.04 | C 0.809 | D 0.154 | E -0.0725 | F 0.659 | G 0.44 | H 0.98 | I < -4 | K 0.336 | L -0.464 | M 0.546 | N 0.477 | P 0.337 | Q 0.692 | R 0.691 | T 0.288 | V -1.34 | W -0.586 | Y 0.722
N37: A 1.06 | C -1.2 | D < -4 | E 0.0863 | F -1.05 | G 0.57 | H -0.0671 | I < -4 | K -0.223 | L -1.28 | M 0.0688 | P -0.39 | Q 0.0471 | R -0.882 | S 0.743 | T 0.652 | V -0.846 | W < -4 | Y < -4
S38: A 0.101 | C 0.234 | D < -4 | E < -4 | F < -4 | G -0.175 | H < -4 | I < -4 | K -0.811 | L -0.161 | M -1.02 | N -0.533 | P 0.182 | Q -1.28 | R -0.625 | T 0.233 | V -0.88 | W -0.331 | Y < -4
R39: A < -4 | C 0.716 | D < -4 | E -1.2 | F < -4 | G -0.766 | H 0.651 | I < -4 | K -0.639 | L -1.19 | M < -4 | N < -4 | P -1.3 | Q < -4 | S < -4 | T < -4 | V < -4 | W -0.721 | Y < -4
S40: A -0.545 | C < -4 | D < -4 | E < -4 | F -0.213 | G -1.59 | H < -4 | K < -4 | L < -4 | M < -4 | N -0.771 | P -1.41 | Q < -4 | R -1.5 | T -1.24 | V -0.584 | W -1.6 | Y < -4
Q41: A 0.907 | C 0.778 | D -1.51 | E -1.18 | F < -4 | G -0.869 | H -0.223 | I < -4 | K -0.902 | L 0.0877 | M < -4 | N -0.701 | P -0.885 | R 0.0347 | S -0.487 | T -0.244 | V -1.36 | W -0.902 | Y < -4
A42: C 1.04 | D -0.51 | E -0.846 | F -0.984 | G -0.206 | H < -4 | I < -4 | K -0.596 | L -1.03 | M < -4 | N -0.943 | P -0.806 | Q -1.52 | R -1.14 | S -0.204 | T -0.507 | V -0.268 | W -1.11 | Y < -4
Y43: A -0.67 | C -0.107 | D < -4 | E < -4 | F 0.417 | G < -4
